From patent US11000038B2, “Pyridone compounds and agricultural and horticultural fungicides containing the same as active ingredients” (priority 2017, dated 2021)

How the values were obtained:
[1] = test system: rice blast fungi (Magnaporthe grisea); assay type: in vivo; conditions: spray treatment of rice plants; control value=100{1-(n/3)}
[2] = test system: cucumber anthracnose fungi (Colletotrichum orbiculare); experiment: Test Example H: cucumber anthracnose, spray treatment of cucumber plants; conditions: 250 ppm spray, 2.5 ml/pot, cucumber Sagami Hanjiro; 6 to 10 days from inoculation

COc1cc(F)c(-c2c(Br)c(=O)c(Cl)cn2Cc2ccccc2)c(F)c1 [Compound 59]
Test A control value class (rice blast) [1]: H (H shows the control value of more than 50%) | Test H control value class (cucumber anthracnose) [2]: H (H shows the control value of more than 50%)

O=c1c(Cl)cn(-c2ccccc2Cl)c(-c2c(F)cccc2F)c1Br [Compound 60]
Test A control value class (rice blast) [1]: H (H shows the control value of more than 50%) | Test H control value class (cucumber anthracnose) [2]: H (H shows the control value of more than 50%)

O=c1c(Cl)cn(-c2ccccc2Cl)c(-c2c(F)cccc2F)c1Cl [Compound 61]
Test A control value class (rice blast) [1]: H (H shows the control value of more than 50%) | Test H control value class (cucumber anthracnose) [2]: H (H shows the control value of more than 50%)

Cc1ccccc1-n1cc(Cl)c(=O)c(Br)c1-c1c(F)cc(F)cc1F [Compound 62]
Test A control value class (rice blast) [1]: H (H shows the control value of more than 50%) | Test H control value class (cucumber anthracnose) [2]: H (H shows the control value of more than 50%)

Cc1ccccc1-n1cc(Cl)c(=O)c(Cl)c1-c1c(F)cc(F)cc1F [Compound 63]
Test A control value class (rice blast) [1]: H (H shows the control value of more than 50%) | Test H control value class (cucumber anthracnose) [2]: H (H shows the control value of more than 50%)

COc1cc(F)c(-c2c(Cl)c(=O)c(Cl)cn2-c2ccccc2C)c(F)c1 [Compound 64]
Test A control value class (rice blast) [1]: H (H shows the control value of more than 50%) | Test H control value class (cucumber anthracnose) [2]: H (H shows the control value of more than 50%)

COc1cc(F)c(-c2c(Br)c(=O)c(Cl)cn2-c2ccccc2C)c(F)c1 [Compound 65]
Test A control value class (rice blast) [1]: H (H shows the control value of more than 50%) | Test H control value class (cucumber anthracnose) [2]: H (H shows the control value of more than 50%)

Cc1ccccc1-n1cc(Br)c(=O)c(Cl)c1-c1c(F)cc(F)cc1F [Compound 66]
Test A control value class (rice blast) [1]: H (H shows the control value of more than 50%) | Test H control value class (cucumber anthracnose) [2]: H (H shows the control value of more than 50%)

Cc1ccccc1-n1cc(Br)c(=O)c(Br)c1-c1c(F)cc(F)cc1F [Compound 67]
Test A control value class (rice blast) [1]: H (H shows the control value of more than 50%) | Test H control value class (cucumber anthracnose) [2]: H (H shows the control value of more than 50%)

COc1cc(F)c(-c2c(Br)c(=O)c(Br)cn2-c2ccccc2C)c(F)c1 [Compound 68]
Test A control value class (rice blast) [1]: H (H shows the control value of more than 50%) | Test H control value class (cucumber anthracnose) [2]: H (H shows the control value of more than 50%)

O=c1c(Cl)cn(CCCC(F)(F)F)c(-c2c(F)cc(F)cc2F)c1Cl [Compound 69]
Test A control value class (rice blast) [1]: L (L shows the control value of 50% or less) | Test H control value class (cucumber anthracnose) [2]: L (L shows the control value of 50% or less)

O=c1c(Cl)cn(CCCC(F)(F)F)c(-c2c(F)cc(F)cc2F)c1Br [Compound 70]
Test A control value class (rice blast) [1]: L (L shows the control value of 50% or less) | Test H control value class (cucumber anthracnose) [2]: L (L shows the control value of 50% or less)

O=c1c(Br)cn(CCCC(F)(F)F)c(-c2c(F)cc(F)cc2F)c1Cl [Compound 71]
Test A control value class (rice blast) [1]: L (L shows the control value of 50% or less) | Test H control value class (cucumber anthracnose) [2]: H (H shows the control value of more than 50%)

O=c1c(Br)cn(CCCC(F)(F)F)c(-c2c(F)cc(F)cc2F)c1Br [Compound 72]
Test A control value class (rice blast) [1]: L (L shows the control value of 50% or less) | Test H control value class (cucumber anthracnose) [2]: L (L shows the control value of 50% or less)

CC(c1ccccc1)n1cc(Cl)c(=O)c(Br)c1-c1c(F)cc(F)cc1F (stereo not shown) [Compound 73]
Test A control value class (rice blast) [1]: H (H shows the control value of more than 50%) | Test H control value class (cucumber anthracnose) [2]: L (L shows the control value of 50% or less)

CC(c1ccccc1)n1cc(Cl)c(=O)c(Cl)c1-c1c(F)cc(F)cc1F (stereo not shown) [Compound 74]
Test A control value class (rice blast) [1]: H (H shows the control value of more than 50%) | Test H control value class (cucumber anthracnose) [2]: L (L shows the control value of 50% or less)

COc1ccccc1-n1cc(Cl)c(=O)c(Cl)c1-c1c(F)cc(F)cc1F [Compound 75]
Test A control value class (rice blast) [1]: H (H shows the control value of more than 50%) | Test H control value class (cucumber anthracnose) [2]: H (H shows the control value of more than 50%)

CC(c1ccccc1)n1cc(Cl)c(=O)c(I)c1-c1c(F)cc(F)cc1F (stereo not shown) [Compound 76]
Test A control value class (rice blast) [1]: H (H shows the control value of more than 50%) | Test H control value class (cucumber anthracnose) [2]: L (L shows the control value of 50% or less)

CC(c1ccccc1)n1cc(Br)c(=O)c(Cl)c1-c1c(F)cc(F)cc1F (stereo not shown) [Compound 77]
Test A control value class (rice blast) [1]: H (H shows the control value of more than 50%) | Test H control value class (cucumber anthracnose) [2]: L (L shows the control value of 50% or less)

CC(c1ccccc1)n1cc(Br)c(=O)c(Br)c1-c1c(F)cc(F)cc1F (stereo not shown) [Compound 78]
Test A control value class (rice blast) [1]: H (H shows the control value of more than 50%) | Test H control value class (cucumber anthracnose) [2]: L (L shows the control value of 50% or less)

O=c1c(Cl)cn(Cc2ccccc2Cl)c(-c2c(F)cc(F)cc2F)c1Cl [Compound 79]
Test A control value class (rice blast) [1]: H (H shows the control value of more than 50%) | Test H control value class (cucumber anthracnose) [2]: L (L shows the control value of 50% or less)

O=c1c(Cl)cn(Cc2ccccc2Cl)c(-c2c(F)cc(F)cc2F)c1Br [Compound 80]
Test A control value class (rice blast) [1]: H (H shows the control value of more than 50%) | Test H control value class (cucumber anthracnose) [2]: L (L shows the control value of 50% or less)

COc1ccccc1-n1cc(Br)c(=O)c(Cl)c1-c1c(F)cc(F)cc1F [Compound 81]
Test A control value class (rice blast) [1]: H (H shows the control value of more than 50%) | Test H control value class (cucumber anthracnose) [2]: H (H shows the control value of more than 50%)

COc1cc(F)c(-c2c(Br)c(=O)c(Cl)cn2C(C)c2ccccc2)c(F)c1 (stereo not shown) [Compound 82]
Test A control value class (rice blast) [1]: H (H shows the control value of more than 50%) | Test H control value class (cucumber anthracnose) [2]: H (H shows the control value of more than 50%)

COc1cc(F)c(-c2c(Cl)c(=O)c(Cl)cn2C(C)c2ccccc2)c(F)c1 (stereo not shown) [Compound 83]
Test A control value class (rice blast) [1]: H (H shows the control value of more than 50%) | Test H control value class (cucumber anthracnose) [2]: H (H shows the control value of more than 50%)

COc1cc(F)c(-c2c(Br)c(=O)c(Cl)cn2CCCC(F)(F)F)c(F)c1 [Compound 84]
Test A control value class (rice blast) [1]: L (L shows the control value of 50% or less) | Test H control value class (cucumber anthracnose) [2]: L (L shows the control value of 50% or less)

COc1cc(F)c(-c2c(Cl)c(=O)c(Cl)cn2CCCC(F)(F)F)c(F)c1 [Compound 85]
Test A control value class (rice blast) [1]: L (L shows the control value of 50% or less) | Test H control value class (cucumber anthracnose) [2]: L (L shows the control value of 50% or less)

O=c1c(Br)cn(Cc2ccccc2Cl)c(-c2c(F)cc(F)cc2F)c1Cl [Compound 86]
Test A control value class (rice blast) [1]: L (L shows the control value of 50% or less) | Test H control value class (cucumber anthracnose) [2]: L (L shows the control value of 50% or less)

O=c1c(Br)cn(Cc2ccccc2Cl)c(-c2c(F)cc(F)cc2F)c1Br [Compound 87]
Test A control value class (rice blast) [1]: H (H shows the control value of more than 50%) | Test H control value class (cucumber anthracnose) [2]: H (H shows the control value of more than 50%)
